# In all, about 33,000 sequences were measured (“E-score (-0.5 to 0.5)”: median about -0.011, highest 2% from about 0.28 on). The list shows a part of the results.
# Target: T1, Gcr1 (UniProt P07261)
# T1 sequence: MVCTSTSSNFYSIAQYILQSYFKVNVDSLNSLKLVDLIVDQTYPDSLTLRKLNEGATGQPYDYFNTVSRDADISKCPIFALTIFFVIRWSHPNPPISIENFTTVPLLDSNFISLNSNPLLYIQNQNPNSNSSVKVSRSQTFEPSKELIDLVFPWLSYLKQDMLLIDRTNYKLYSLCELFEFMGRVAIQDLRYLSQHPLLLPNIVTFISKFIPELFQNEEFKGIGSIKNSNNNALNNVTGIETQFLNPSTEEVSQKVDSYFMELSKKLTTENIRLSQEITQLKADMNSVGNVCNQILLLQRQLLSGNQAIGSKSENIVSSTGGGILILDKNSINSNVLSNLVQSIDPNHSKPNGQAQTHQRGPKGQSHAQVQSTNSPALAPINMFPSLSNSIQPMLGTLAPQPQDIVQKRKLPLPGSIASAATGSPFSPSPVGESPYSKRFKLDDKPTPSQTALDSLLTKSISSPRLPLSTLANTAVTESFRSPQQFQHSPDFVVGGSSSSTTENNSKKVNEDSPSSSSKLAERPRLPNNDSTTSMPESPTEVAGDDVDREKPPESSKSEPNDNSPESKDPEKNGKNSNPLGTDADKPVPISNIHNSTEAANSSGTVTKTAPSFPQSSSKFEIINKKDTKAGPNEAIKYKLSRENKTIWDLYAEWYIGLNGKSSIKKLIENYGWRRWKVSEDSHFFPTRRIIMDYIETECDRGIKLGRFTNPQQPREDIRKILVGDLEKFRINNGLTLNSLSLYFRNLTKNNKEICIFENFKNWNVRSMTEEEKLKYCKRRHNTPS
# Assay: PBM E-score (8-mer binding enrichment) (E-score (-0.5 to 0.5)); higher = stronger / more preferred TF binding; most listed sequences are background and not binding sites
# Settings: protein concentration: 100 nM; construct: GST-full length
# How it was run: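 Each ungapped eight-base word and its reverse complement, pooled, received an E-score from the Universal PBM Analysis Suite. Underlying scans, normalised with masliner, recorded fluorescent anti-GST bound to GST-tagged yeast transcription factors. These were applied at about 100-200 nM to universal all-10-mer Agilent arrays double-stranded by primer extension.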
row,Sequence,PBM E-score
1,ATGAACCG,-0.155
2,ACGAAAGC,-0.0154
3,ATCTGGTG,0.208
4,CATATAGA,0.21
5,GCCGATGA,-0.094
6,GGCTTCAC,-0.14
7,GAGACACC,0.0228
8,AGTCTGAT,-0.062
9,CGAGGACA,-0.218
10,ACGCGATC,-0.0568
11,ATGCCCAA,-0.0436
12,AACGCCGG,-0.0916
13,GACCTAAC,0.0579
14,AAGTGTGT,-0.144
15,GGAAAGGA,-0.0351
16,CTTCTCGA,-0.0527
17,CTAAACGA,-0.00769
18,ATTTTTAC,0.0328
19,AACCTAGT,0.224
20,ACTGTGTG,-0.111
21,CACGACCC,-0.0368
22,GCGTAGAA,-0.025
23,ACAGTAGT,-0.00605
24,CGTCTATA,0.129
25,ACACAAAA,0.141

row,Sequence,PBM E-score
1,CTTTCCCC,0.0545
2,ACTGAAAC,0.0485
3,CCGCCGGC,-0.0753
4,CCGTCAGA,-0.178
5,ATGTTGTA,0.104
6,AGCTGCTG,0.248
7,AGCACCCA,0.351
8,ATACGAAC,0.0987
9,GAGGGGGA,-0.17
10,GCCATGGC,-0.161
11,ACAGAAGC,0.271
12,CTCCCAGA,0.136
13,AGTTCCTA,0.116
14,GGCTCCCC,0.228
15,ATAATGCG,-0.00804
16,CGGGATAC,0.304
17,ATCATGTG,-0.277
18,AACTTAGT,-0.119
19,ACGGCAGA,0.0602
20,CATCGAAC,-0.187
21,AAACTACA,0.201
22,GCCTGGGA,0.104
23,ACTGATCG,-0.109
24,GTGAAGTA,-0.172
25,CCCGAGGG,-0.106

row,Sequence,PBM E-score
1,TATAACAA,0.0961
2,ATTTCGTC,0.0151
3,CCTGTCAC,0.163
4,AGTCGAAT,-0.0217
5,ACCCACCT,-0.117
6,AACCGTTC,-0.0422
7,AGGTGGGC,-0.163
8,CCGACAAC,0.0732
9,CCTGTACC,0.1
10,AATGAGAA,-0.0333
11,ACGCACAC,-0.0982
12,AGTGTGAT,-0.12
13,ATAAGCGA,-0.0589
14,CGTCACAG,-0.0234
15,GAGAAGTA,-0.0701
16,CGCACGAC,-0.161
17,ATTGCACA,-0.0616
18,CGGGGAGC,0.0778
19,AATACCTG,0.106
20,ACTCGCTA,-0.197
21,AAACCACT,0.0327
22,GCCCGGAC,-0.137
23,AATAGCGA,0.072
24,CTGATTGA,-0.0741
25,CCTCCGAA,0.136

row,Sequence,PBM E-score
1,GAACAGGC,0.00482
2,ACCGATTA,0.113
3,AATAGGTC,0.00851
4,AAAGGCGG,-0.0258
5,TAGGCAAA,-0.0552
6,GCAATCAC,-0.29
7,AATGAGGC,-0.111
8,ATTCCCAC,-0.0204
9,GCACTTCC,0.168
10,CTCTTAAC,-0.0399
11,ACGAGAAC,-0.0918
12,CTGACTCC,0.0542
13,GCACGGTA,-0.172
14,GCCCGCAC,-0.00545
15,ACGATATG,-0.0605
16,ATGTACGC,-0.193
17,ACATTTAA,0.151
18,CGAGAGCG,-0.0662
19,ACCCATAT,0.168
20,GTTTACGA,-0.0324
21,AACGATGA,0.0336
22,CAGGCGCG,-0.0119
23,CCGCTCCG,0.0276
24,ACTCGGAG,-0.0633
25,TACTATAA,0.123

row,Sequence,PBM E-score
1,CAGCAACC,0.287
2,TGTATAAA,-0.038
3,AAACCCTC,-0.0982
4,ACAGAACC,-0.0272
5,ACCTGATC,-0.248
6,TATCAAGA,-0.0423
7,AACGCTTG,-0.0993
8,AGGCATGA,-0.196
9,TCGAAAAA,0.126
10,ACTCCTCC,-0.145
11,AATGCTAT,0.0311
12,GGGCTAGA,-0.19
13,TACTTCGA,-0.0369
14,ACGTAAAC,-0.163
15,AAACCGTC,-0.286
16,AACAGCGC,-0.0848
17,GGTTCCAA,0.391
18,ACAACTAG,0.0278
19,TCTCCTAA,0.184
20,AAGCCTCA,0.0383
21,GGGTCTCA,-0.126
22,GTCGGCAA,0.0614
23,CCTGTTGC,0.0154
24,CTAATTGC,0.0145
25,CAGCGCCC,0.258

row,Sequence,PBM E-score
1,CAAATGCC,0.00666
2,CCGAGCGA,0.0373
3,GGGATAAC,0.0951
4,AAGACCCG,-0.0294
5,AATAGGCT,-0.00584
6,ACTTTATC,0.0991
7,GGGCCTCA,-0.041
8,GGAGCTTA,0.116
9,GAACTCCC,0.0644
10,GACCCCGA,0.0401
11,GGGTGGAC,-0.0944
12,CGATTTGA,-0.115
13,ACCGACTA,-0.158
14,AGCTGCAA,-0.0289
15,AAATCAGT,0.0327
16,ATTGGAGC,0.127
17,ATAACCAC,-0.0605
18,GTCACGAC,0.101
19,CCCAACAG,0.00411
20,GGTTCCCA,0.327
21,GGAATGAC,-0.105
22,CGCCGTTA,0.111
23,AAGTCACA,0.156
24,ACGTTAGA,0.109
25,CAGACGAC,-0.216

row,Sequence,PBM E-score
1,CAAACGCC,-0.2
2,AGTACCTC,-0.178
3,GTTTAACA,-0.17
4,GTGCCTTA,0.0187
5,CAAGTTGC,0.154
6,CCTCCACA,0.0108
7,AGTGATAC,0.0563
8,ATGTCTAA,-0.0649
9,GAACAGGA,0.127
10,GATACGAC,0.0658
11,GGCTTCCC,0.433
12,AGGTCGAT,-0.186
13,GACACCCA,0.0834
14,GGGCCAGA,0.0769
15,AAGAATCT,0.251
16,ACGTTCAT,-0.0953
17,GAACCAAC,0.00451
18,ATCCGCCA,-0.0303
19,GATATCGA,-0.00142
20,ACTCTTAG,0.166
21,GATCTCCA,0.0206
22,AGCACTAT,-0.0246

# Reference: the supplement of paper PMC3334620
